The record followed here is the supplement of paper PMC9174493.

Molecules are shown by their SMILES. This is one part of the list. Single values of this set are uncertain. Values with irradiation are relative to irradiated vehicle.

Test [1] deals with A549-Dual. Put plainly: NF-kB reporter (SEAP) activity, viability-corrected, relative to vehicle (fold change vs vehicle); higher = more activation of STING-IRF / NF-kB immune response reporter. Particulars: 10 µM.
For test [2], the system named is A549-Dual. The experiment in a line: ISRE reporter (Lucia luciferase) activity, viability-corrected, relative to vehicle (fold change vs vehicle); higher = more activation of STING-IRF / NF-kB immune response reporter. Particulars: 10 µM.
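For NF-kB reporter (SEAP) activity, viability-corrected, relative to vehicle in this document: viability correction based on the alamar blue assay, with concentrations leaving 10% survival or less dropped.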

Turning to `CC(CCc1ccc(O)cc1)NCC(O)c1ccc(O)cc1.Cl` (configuration not stated) [Ractopamine HCl], the NF-kB reporter in the test with A549-Dual [1] (irradiation: 8 Gy/4 fr) was 1.62; in the test with A549-Dual [1] (irradiation: none), 1.01. The ISRE reporter is 1.61 with A549-Dual [2] (irradiation: 8 Gy/4 fr) and 0.898 in the test with A549-Dual [2] (irradiation: none).
On to `CNCC(O)c1ccc(O)c(O)c1.Cl` (configuration not stated) [Epinephrine HCl], for which the NF-kB reporter came out at 0.925 in the test on A549-Dual [1] (irradiation: 8 Gy/4 fr) and 1.31 with A549-Dual [1] (irradiation: none). For the same compound, the ISRE reporter in the test on A549-Dual [2] (irradiation: 8 Gy/4 fr) came to 0.857; in the test on A549-Dual [2] (irradiation: none) it was 0.643.
Consider `N=C(N)NCCN1CCCCCCC1.N=C(N)NCCN1CCCCCCC1.O=S(=O)(O)O` [Guanethidine Sulfate], for which the NF-kB reporter in the test on A549-Dual [1] (irradiation: 8 Gy/4 fr) was 0.743; in the test on A549-Dual [1] (irradiation: none), 0.806. Moreover, the ISRE reporter with A549-Dual [2] (irradiation: 8 Gy/4 fr) was 0.769; with A549-Dual [2] (irradiation: none) it was 0.853.
As for `Cc1ccccc1C(=O)O` [o-Toluic acid], the results for the NF-kB reporter in the test with A549-Dual [1] (irradiation: 8 Gy/4 fr) and with A549-Dual [1] (irradiation: none) were 1.37 and 0.69, respectively. For the same compound, the ISRE reporter is 1.51 in the test on A549-Dual [2] (irradiation: 8 Gy/4 fr) and 0.778 with A549-Dual [2] (irradiation: none).
Turning to `CN1CC2c3ccccc3Oc3ccc(Cl)cc3C2C1.O=C(O)/C=C\C(=O)O` (configuration not stated) [Asenapine maleate], the NF-kB reporter in the test with A549-Dual [1] (irradiation: 8 Gy/4 fr) stood at 0.597; in the test with A549-Dual [1] (irradiation: none) it was 0.94. Further, the values for the ISRE reporter in the test on A549-Dual [2] (irradiation: 8 Gy/4 fr) and in the test with A549-Dual [2] (irradiation: none) were 0.934 and 1.21, respectively.
The matching figures for `NCCCC(O)(P(=O)(O)O)P(=O)(O)[O][Na].O.O.O` (configuration not stated) [Alendronate sodium trihydrate]: 0.835, 0.663, 0.702 and 0.639.
The matching figures for `COc1cc2c(cc1OC)CC(=O)N(CCCN(C)CC1Cc3cc(OC)c(OC)cc31)CC2.Cl` (configuration not stated) [Ivabradine HCl]: 0.625, 0.832, 0.736 and 0.862.
For `NC1CONC1=O` [D-Cycloserine], the NF-kB reporter in the test with A549-Dual [1] (irradiation: 8 Gy/4 fr) was 0.96; with A549-Dual [1] (irradiation: none), 0.879. For the same compound, the values for the ISRE reporter in the test on A549-Dual [2] (irradiation: 8 Gy/4 fr) and in the test on A549-Dual [2] (irradiation: none) were 0.936 and 0.876, respectively.
The matching figures for `CC(C(O)c1ccc(O)cc1)N1CCC(Cc2ccccc2)CC1.CC(C(O)c1ccc(O)cc1)N1CCC(Cc2ccccc2)CC1.O=C(O)C(O)C(O)C(=O)O` (configuration not stated) [Ifenprodil Tartrate]: 0.655, 0.776, 0.779 and 0.961.
Take `C[N+]1(C)C2CC(OC(=O)C(O)(c3cccs3)c3cccs3)CC1C1OC12.O.[Br-]` (configuration not stated) [Tiotropium Bromide hydrate]: the NF-kB reporter in the test on A549-Dual [1] (irradiation: 8 Gy/4 fr) was determined as 0.792; in the test on A549-Dual [1] (irradiation: none), 1.12. Further, the ISRE reporter with A549-Dual [2] (irradiation: 8 Gy/4 fr) was 0.928; with A549-Dual [2] (irradiation: none), 1.26.
Consider `COC(=O)C1C2CC3c4[nH]c5cc(OC)ccc5c4CCN3CC2CC(OC(=O)c2cc(OC)c(OC)c(OC)c2)C1OC` (configuration not stated) [Reserpine], for which the values for the NF-kB reporter with A549-Dual [1] (irradiation: 8 Gy/4 fr) and in the test on A549-Dual [1] (irradiation: none) were 0.689 and 0.945, respectively. The results for the ISRE reporter with A549-Dual [2] (irradiation: 8 Gy/4 fr) and with A549-Dual [2] (irradiation: none) were 1.07 and 1.22, respectively.
Turning to `CCN(CC)CCOc1ccc(/C(=C(\Cl)c2ccccc2)c2ccccc2)cc1.O=C(O)CC(O)(CC(=O)O)C(=O)O` [Clomifene citrate], the NF-kB reporter with A549-Dual [1] (irradiation: 8 Gy/4 fr) was 0.744; in the test on A549-Dual [1] (irradiation: none), 1.07. The values for the ISRE reporter in the test on A549-Dual [2] (irradiation: 8 Gy/4 fr) and in the test on A549-Dual [2] (irradiation: none) were 0.395 and 1.18, respectively.
For `CCc1cc(C(N)=S)ccn1` [Ethionamide], the NF-kB reporter was found to be 0.646 in the test on A549-Dual [1] (irradiation: 8 Gy/4 fr) and 0.922 in the test with A549-Dual [1] (irradiation: none). Also, the ISRE reporter was 0.531 in the test with A549-Dual [2] (irradiation: 8 Gy/4 fr) and 0.611 with A549-Dual [2] (irradiation: none).
For the compound `CC(CCC(=O)[O-])C1CCC2C3C(=O)CC4CC(=O)CCC4(C)C3CC(=O)C12C.[Na+]` (configuration not stated) [Sodium Dehydrocholate], the NF-kB reporter with A549-Dual [1] (irradiation: 8 Gy/4 fr) was 0.791; in the test with A549-Dual [1] (irradiation: none), 0.691. The ISRE reporter was 0.691 in the test on A549-Dual [2] (irradiation: 8 Gy/4 fr) and 0.553 in the test with A549-Dual [2] (irradiation: none).
For the compound `Cc1noc(NS(=O)(=O)c2ccc(N)cc2)c1C` [Sulfisoxazole], the figures for the NF-kB reporter in the test on A549-Dual [1] (irradiation: 8 Gy/4 fr) and with A549-Dual [1] (irradiation: none) were 0.72 and 0.946, respectively. The ISRE reporter amounted to 0.772 with A549-Dual [2] (irradiation: 8 Gy/4 fr) and 0.674 in the test on A549-Dual [2] (irradiation: none).
Take `Oc1cc(O)c2c(c1)OC(c1ccc(O)c(O)c1)C(O)C2` (single isomer, unassigned; (+)) [(+)-Catechin hydrate]: the NF-kB reporter with A549-Dual [1] (irradiation: 8 Gy/4 fr) turned out to be 0.863; in the test with A549-Dual [1] (irradiation: none), 0.534. In addition, the ISRE reporter is 0.782 with A549-Dual [2] (irradiation: 8 Gy/4 fr) and 0.618 in the test with A549-Dual [2] (irradiation: none).
As to `CCN1CCN(C(=O)NC(C(=O)NC2C(=O)N3C2SC(C)(C)C3C(=O)[O-])c2ccccc2)C(=O)C1=O.[Na+]` (configuration not stated) [Piperacillin Sodium], the NF-kB reporter with A549-Dual [1] (irradiation: 8 Gy/4 fr) was 0.867; with A549-Dual [1] (irradiation: none), 1.39. Moreover, the ISRE reporter in the test on A549-Dual [2] (irradiation: 8 Gy/4 fr) came to 0.794; with A549-Dual [2] (irradiation: none), 0.998.
The matching figures for `O=C(O)C(=O)c1ccccc1` [Phenylglyoxylic acid]: 1.09, 0.717, 0.948 and 0.525.
